According to PubChem BioAssay (NCATS):
Where “and” joins values, the source holds several entries; their conditions need not be identical. Identical values can stand only once. Inconclusive means that the source gave no clear call. Such entries were picked first, then a sample of the others. Where the call is inconclusive, the potency comes from a doubtful curve fit. Calls of active or inactive are those of the source. The call rests on the fitted dose curve; in most records, active means well fitted cell-killing curve with a large enough effect; inconclusive means small, poorly fitted or top-dose-only effect, or effect the other way; inactive means no such curve, though single readings can be large or run the other way.

Key:
[1] = Viability qHTS for spleen associated tyrosine kinase inhibitor (SYKi) naive MV4-11 cells (AID 1963823); settings: MV4-11 AML viability, CellTiter-Glo luminescence, 72 h; series mostly up to 45 µM; further: nearly all actives have a fitted effect of over 40% in size
Procedure, shortened: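 Compounds were dispensed acoustically onto plates, MV4-11 cells (SYKi-naive) added at 500 per well, and plates incubated 72 hr at 37 C. CellTiter-Glo was added and luminescence measured after 10 min.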

[2] = Viability qHTS for spleen associated tyrosine kinase inhibitor (SYKi) drug resistant MV4-11 cells (AID 1963824); settings: SYKi-resistant MV4-11 viability, CellTiter-Glo, 72 h; series mostly up to 45 µM; further: nearly all actives have a fitted effect of over 35% in size
Procedure, shortened: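 CellTiter-Glo luminescence, read 10 min after reagent addition, reports viability after a 72 hr compound exposure. Cells are an MV4-11 line made resistant to SYK inhibition, seeded at 500 per well onto compound-containing plates.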
Potency means the concentration at half of the fitted maximal effect; tags describe the fitted curve by direction and shape.

SMILES	Potency [1]	Potency [2]
CC(=O)NC1C(OC2CCC3(C)C(CCC4(C)C3CC=C3C5CC(C)(C)CCC5(C(=O)O)C(O)CC34C)C2(C)C)OC(CO)C(O)C1O (stereo not drawn)	inconclusive: 5.44 µM [cytotoxic, partial curve]	inconclusive: 6.11 µM [cytotoxic, partial curve]
CN(C)CCn1cc(-c2ccc(F)cc2)c(-n2cccc2)n1	inconclusive: 29.1 µM [cytotoxic, single point]	inconclusive: 29.1 µM [cytotoxic, single point]
CC1C=CC2CCCCC2C1CCC1CC(O)CC(=O)O1 (stereo not drawn)	inconclusive: 8.2 µM [cytotoxic, partial curve, poor fit]	inconclusive: 23.1 µM [cytotoxic, single point]
O=C(C[C@@H]1C(C(=O)O)=CO[C@@H](O[C@@H]2O[C@H](CO)[C@@H](O)[C@H](O)[C@H]2O)/C1=C\CO)OCCc1ccc(O)c(O)c1	inactive	inactive
C1CCN2CC3C[C@@H](CN4CCCC[C@@H]34)[C@H]2C1	inactive	inactive
C[C@@H]1N[C@H]2N(C1=O)c1ccccc1[C@@]2(O)C[C@@H]1C(=O)N[C@@H](C)c2nc3ccccc3c(=O)n21	inactive	inconclusive: 4.47 µM [cytotoxic, partial curve, poor fit]
COc1cc2[nH]c(=O)[nH]c(=O)c2cc1OC	inactive	inactive
CC(C)c1cc2c(c(O)c1O[C@@H]1O[C@H](CO)[C@@H](O)[C@H](O)[C@H]1O)CC1(O)CCC(O)C(C)(C)C1CC2 (stereo partly drawn)	inactive	inactive
CC(=O)OCC(=O)[C@@]1(O)CC[C@H]2[C@@H]3CCC4=CC(=O)C=C[C@]4(C)[C@@]3(F)[C@@H](O)C[C@@]21C	inconclusive: 0.0668 µM [rising, full curve]	inconclusive: 0.0027 µM [rising, full curve, poor fit]
CO[C@@H](Cc1ccc(OCCc2nc(-c3ccccc3)oc2C)c2ccsc12)C(=O)O	inconclusive: 20.6 µM [cytotoxic, partial curve]	inconclusive: 13 µM [cytotoxic, partial curve]
Cc1cccc(C)c1-n1c(=O)c2cnc(Nc3ccc(N4CCN(C)CC4)cc3)nc2n2c3ccccc3nc12	inconclusive: 0.517 µM [cytotoxic, full curve]	inconclusive: 0.517 µM [cytotoxic, full curve]
COc1c2c(c(C)c3c1C(=O)OC3)OC1(C)CC(O)C3(O)C(C)(C)OC(=O)CCC3(C)C1C2 (stereo not drawn)	inactive	inactive
O=C(NC1Cc2ccccc2N(C[C@@H](O)CO)C1=O)c1cc2cc(Cl)sc2[nH]1 (stereo partly drawn)	inconclusive: 29.1 µM [cytotoxic, single point]	inconclusive: 23.1 µM [cytotoxic, partial curve, poor fit]
CC(O)C1CCC2C3CCC4CC(OC5OC(C(=O)O)C(O)C(O)C5O)CCC4(C)C3CCC12C (stereo not drawn)	inactive	inconclusive: 0.164 µM [cytotoxic, single point]
CCOc1cc2ncc(C#N)c(Nc3ccc(F)c(Cl)c3)c2cc1NC(=O)/C=C/CN(C)C	inconclusive: 259 nM [cytotoxic, full curve] and inconclusive: 263 nM [cytotoxic, full curve]	inconclusive: 0.231 µM [cytotoxic, full curve]
OCC1OC(Oc2cc(O)cc(/C=C/c3ccc(OC4OC(CO)C(O)C(O)C4O)cc3O)c2)C(O)C(O)C1O (stereo not drawn)	inactive	inactive
C=C1CC[C@@H]2[C@](C)(CO)[C@H](O)CC[C@@]2(C)[C@@H]1C/C=C1/C(=O)OCC1OC(=O)/C(=C/CO)C(O)C[C@@H]1C(=C)CC[C@@H]2[C@](C)(CO)[C@H](O)CC[C@]21C (stereo partly drawn)	inconclusive: 4.32 µM [cytotoxic, partial curve]	inconclusive: 3.43 µM [cytotoxic, partial curve]
CO[C@H]1c2cc(C(C)C)c(O)c(O)c2[C@@]23CCCC(C)(C)C2[C@@H]1OC3=O (stereo partly drawn)	inconclusive: 12.8 µM [cytotoxic, single point]	inconclusive: 14.3 µM [cytotoxic, partial curve]
CC(=O)Nc1c(I)c(NC(C)=O)c(I)c(C(=O)O)c1I	inconclusive: 0.0075 µM [rising, full curve, poor fit]	inconclusive: 0.0038 µM [rising, full curve]
